From PubChem BioAssay AID1460 (National Center for Advancing Translational Sciences (NCATS), 2008)
The whole screen tested about 270,000 compounds, of which about 5,800 (2.1%) were called active. The shares of active, inactive and inconclusive entries below differ from those in the screen. The call rests on the fitted dose curve; in most records, active means well fitted inhibition curve with a large enough effect; inconclusive means small, poorly fitted or top-dose-only effect; inactive means flat fitted curve, though single readings scatter. A potency beside an inconclusive call is a rough fit, not a confirmed value.

Target: Microtubule-associated protein tau (Homo sapiens) (UniProt P10636)
Chain of UniProt P10636 (P10636 whole entry, looked up): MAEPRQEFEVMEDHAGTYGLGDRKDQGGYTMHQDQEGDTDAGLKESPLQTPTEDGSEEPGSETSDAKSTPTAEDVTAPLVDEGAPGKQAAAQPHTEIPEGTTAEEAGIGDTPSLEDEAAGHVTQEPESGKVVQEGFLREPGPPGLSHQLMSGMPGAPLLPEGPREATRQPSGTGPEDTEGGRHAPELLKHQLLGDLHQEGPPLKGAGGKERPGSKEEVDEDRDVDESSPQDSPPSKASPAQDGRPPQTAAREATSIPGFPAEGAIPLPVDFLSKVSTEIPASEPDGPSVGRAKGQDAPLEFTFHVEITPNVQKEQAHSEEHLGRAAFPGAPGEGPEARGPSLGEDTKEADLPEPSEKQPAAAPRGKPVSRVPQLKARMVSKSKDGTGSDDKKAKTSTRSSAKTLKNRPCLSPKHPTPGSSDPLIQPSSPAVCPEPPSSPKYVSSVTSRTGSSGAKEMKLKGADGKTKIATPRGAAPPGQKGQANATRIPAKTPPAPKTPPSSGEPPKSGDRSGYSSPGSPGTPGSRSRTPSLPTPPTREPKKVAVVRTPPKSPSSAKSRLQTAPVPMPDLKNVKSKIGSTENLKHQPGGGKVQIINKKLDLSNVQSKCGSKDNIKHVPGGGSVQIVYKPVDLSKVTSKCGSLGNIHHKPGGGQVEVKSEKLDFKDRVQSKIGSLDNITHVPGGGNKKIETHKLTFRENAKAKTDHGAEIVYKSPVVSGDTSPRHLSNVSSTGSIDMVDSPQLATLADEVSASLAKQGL
Assay: qHTS for Inhibitors of Tau Fibril Formation, Thioflavin T Binding; further: nearly all actives have a fitted effect of over 55% in size
Conditions: recombinant tau K18 P301L (four-repeat tau fragment), heparin-induced fibrillization, ThT fluorescence; series mostly up to 57.4 µM; activity, negative = inhibition: at the top concentration
Outline: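 Recombinant human tau K18 fragment […] carrying P301L, 15 uM unlabeled plus 0.24 uM Alexa 594-labeled, was fibrillized with 20 uM heparin in 100 mM sodium acetate pH 7 for 6 hr at 37 C; 30 uM ThT fluorescence read after 1 hr.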
On the % scale 0 is the no-effect control and ±100 the full control effect; potency means the concentration at half of the fitted maximal effect; tags describe the fitted curve by direction and shape.

SMILES	Potency	activity, negative = inhibition
COc1ccc(OCC(=O)Nc2ccc(NC(=O)c3ccco3)cc2)cc1	inconclusive: 2.24 µM [inhibitor, full curve]	–
O=C(CCCN1C(=O)/C(=C\c2cccs2)SC1=S)Nc1cccc(C(=O)O)c1	inconclusive: 7.94 µM [inhibitor, partial curve]	–
Cc1ccc(CCNC(=O)c2sc3ncccc3c2-n2cccc2)cc1	inconclusive: 17.8 µM [inhibitor, single point]	–
NC(=O)c1c(/N=C/c2cccs2)sc2c1CCCC2	active: 2.24 µM	–
O=[N+]([O-])c1ccc(N2CCN(C(=S)NCc3ccc(Cl)cc3)CC2)cc1	inconclusive: 3.16 µM [inhibitor, full curve]	–
CC(=O)Nc1ncc2c(n1)CC(c1ccco1)CC2=O (stereo not drawn)	–	inactive: -21.4%
CCOC(=O)c1c(NC(=S)NCCc2ccccc2)sc2c1CC(C(C)C)OC2 (stereo not drawn)	inconclusive: 8.91 µM [inhibitor, partial curve]	–
Cc1cc(C)cc(NC(=O)C(Cc2ccccc2)N2Cc3ccccc3C2=O)c1 (stereo not drawn)	–	inactive: 1.74%
Cc1ccc(CNC(=O)C(CC(C)C)N2Cc3ccccc3C2=O)cc1 (stereo not drawn)	–	inactive: -0.461%
O=c1cc(-c2ccccc2Cl)oc2cc(O)cc(O)c12	–	inactive: 3.77%
Cc1ccc(NC2=CC(=O)C(=O)c3ccccc32)cc1	active: 25.1 µM	–
CC(=O)NC(Cc1c[nH]c2ccccc12)C(=O)OCC(=O)Nc1cc(C)on1 (stereo not drawn)	–	inactive: -14.6%
COc1ccc(N=Cc2cc(Cc3ccccc3Cl)cc([N+](=O)[O-])c2O)cc1OC	active: 10 µM	–
COC(=O)c1c(-c2cccs2)csc1NC(=O)c1cc(OC)cc(OC)c1	inconclusive: 25.1 µM [inhibitor, single point]	–
Cc1cc(Cl)ccc1NC(=O)CCS(=O)(=O)c1cc2c(cc1C)NC(=O)CO2	–	inactive: -9.33%
Cc1ccc2[nH]cc(CCCN3C(=O)c4ccccc4C3=O)c2c1	inconclusive: 31.6 µM [inhibitor, single point]	–
O=C(CSc1nnnn1-c1ccc2c(c1)OCCO2)OC1CCCCC1	–	inactive: -27%
CCc1ccc(/C=C2\Oc3c(ccc(O)c3CN3CCN(CCO)CC3)C2=O)cc1	inconclusive: 28.2 µM [activator, partial curve]	–
COc1cccc(NC(=S)NNC(=O)c2c([N+](=O)[O-])c(C)nn2C)c1	inconclusive: 20 µM [inhibitor, partial curve]	–
O=C(N/N=C/c1cc([N+](=O)[O-])cc([N+](=O)[O-])c1O)/C(=C\c1cccs1)NC(=O)c1ccccc1	active: 12.6 µM	–
C=CCn1c(=O)c2c3c(sc2n2c(Nc4ccccc4)nnc12)CCCC3	inconclusive: 25.1 µM [inhibitor, partial curve]	–
COc1ccc(C(=O)N=c2sc3cc(Cl)ccc3n2C)cc1	–	inactive: -17.5%
OC1C2COC(O2)[C@H](O)C1O (stereo partly drawn)	–	inactive: 3.87%
CCn1c(C(=O)Nc2cc(C)cc(C)c2)cc2sc(Cl)cc21	–	inactive: -18.9%

SMILES	Potency	activity, negative = inhibition
CC(C)C(Nc1ccc(S(=O)(=O)N2CCOCC2)cc1[N+](=O)[O-])C(=O)O (stereo not drawn)	–	inactive: -13.3%
CSc1ccccc1NC(=O)CCS(=O)(=O)c1nc(-c2cccs2)cc(C(F)(F)F)n1	inconclusive: 10 µM [inhibitor, partial curve]	–
Cc1nnsc1C(=O)Oc1ccccc1Cl	inconclusive: 11.2 µM [inhibitor, partial curve]	–
COc1ccccc1NC1=C(NC(C)=O)C(=O)c2ccccc2C1=O	active: 20 µM	–
C/C(=N\Nc1ncc(Cl)cc1Cl)c1ccccn1	inconclusive: 15.8 µM [inhibitor, partial curve]	–
O=C(O)c1ccc(Cn2nnc3sc4c(c3c2=O)CCCC4)cc1	–	inactive: -15%
CC1C/C(=N\NC(=O)c2ccc([N+](=O)[O-])cc2)CC(C)(C)C1 (stereo not drawn)	inconclusive: 20 µM [inhibitor, single point]	–
O=C(NNC(=O)c1ccc2ccccc2c1O)c1ccccc1Cl	inconclusive: 14.1 µM [inhibitor, partial curve]	–
CCOC(=O)CSc1nc(N2CCOCC2)c2c(c1C#N)CC(C)(C)N(C)C2	inconclusive: 35.5 µM [inhibitor, single point]	–
COc1ccc(CNC(=O)C/C(C)=N/NC(=O)COc2ccc(Br)cc2)cc1	inconclusive: 7.08 µM [inhibitor, partial curve]	–
Cc1ccccc1C(=O)Nc1nnc(S(=O)(=O)N2CCCc3ccccc32)s1	inconclusive: 12.6 µM [inhibitor, partial curve]	–
C[C@H]1/C=C\CC(=O)OC[C@H](C)C(=O)N2CCC[C@@H]2C(=O)OC1	–	inactive: -0.667% [at 11.5 µM]
CCOC(=O)c1c(N)sc2c1CCSC2	active: 25.1 µM	–
CC(=O)Nc1ccc2nc(NC(=O)CCc3ccccc3)sc2c1	inconclusive: 17.8 µM [inhibitor, partial curve, poor fit]	–
Cc1nc(NC(=O)c2ccc(Cl)cc2)sc1-c1csc(Nc2cccc(F)c2)n1	active: 7.08 µM	–
COc1cc(-c2nnc(SCC(=O)N3CCCc4ccccc43)o2)cc(OC)c1OC	inconclusive: 20 µM [inhibitor, partial curve]	–
Cc1ccc(C(=O)Nc2ccc([N+](=O)[O-])cn2)o1	inconclusive: 28.2 µM [inhibitor, single point]	–
O=C(NCc1ccccc1Br)c1ccc(-n2cnc3cccnc32)cc1	–	inactive: -9.71%
CCOc1ccccc1NC(=O)C1CCCN(S(=O)(=O)c2ccc3c(c2)CCCN3C(C)=O)C1 (stereo not drawn)	–	inactive: -5.8%
CCOC(=O)C1=C(c2ccc(OC)cc2)C(=O)c2ccccc2C1=O	active: 14.1 µM	–
CC1=CN2C(=N)/C(=C/c3ccco3)C(=O)N=C2S1	inconclusive: 22.4 µM [inhibitor, partial curve]	–
COc1cccc(CNc2ccc3c(c2)ncn3C)c1OC	inconclusive: 17.8 µM [inhibitor, single point]	–
Cc1nc2cc3nc(C(F)(F)F)[nH]c3cc2[nH]1	inconclusive: 39.8 µM [inhibitor, single point]	–
O=C(Nc1ccccc1-c1ccccc1)C1CCCCC1	–	inactive: -3.55%
